Out of some 320,000 compounds screened, about 7,600 (2.4%) were called active. This list was built around the results that the source calls inconclusive (neither active nor inactive); the mix of calls is not that of the screen. Calls come from the whole dose curve; as a rule, active = well fitted activation curve with a large enough effect; inconclusive = small, poorly fitted or top-dose-only effect; inactive = no such curve, though single readings can be large or run the other way. Potencies of inconclusive entries are left out as doubtful fits.
Experiment: qHTS Assay for NPC1 Promoter Activators; note: nearly all actives have a fitted effect of over 60% in size;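 for activation: reporter is driven by a mutant NPC1 promoter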
Conditions: Huh7 NPC1 promoter luciferase reporter, 24 h; series mostly up to 9.22 µM
Summary of the method: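 Huh7 cells stably carrying NPC1 promoter–luciferase, plated in Opti-MEM with 10% FBS for 2 h, were exposed to compound in DMSO for 24 h at 37 °C; luciferase reagent was added for 10 min and luminescence read.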
In the case of `Cc1ccccc1C(=O)N/N=C/c1ccsc1C`, the Potency is reported as inconclusive [activator, partial curve]. In the case of `O=C(Nc1ccc(O)cc1)c1ccc(NC(=O)c2cccs2)cc1`, the Potency is reported as inconclusive [activator, partial curve]. With `Cc1ccc(C(=O)c2nocc2C(=O)c2cccs2)cc1` the Potency was inconclusive [activator, single point]. In the case of `CCN(CC)c1ccc(C2Nc3cccc4cccc(c34)N2)c(O)c1`, the Potency is reported as inconclusive [activator, partial curve]. With `CC(OC(=O)c1ccccc1NCCO)C(=O)NCC(=O)Nc1ccc(F)c(F)c1F` (stereo unspecified) the Potency was “inactive”. In the case of `CCOC(=O)N1CCC(NC(=O)c2ccc3c(c2)N(Cc2ccccc2)CCS3)CC1`, the Potency is reported as “inactive”. With `CN(/N=C/c1ccc2c(c1)OCO2)c1ccccc1` the Potency was active: 3.98 µM. In the case of `Cc1c(C(=O)NC2CCCCC2)oc2ccccc12`, the Potency is reported as inconclusive [activator, single point]. With `O=C(Nc1ccccn1)c1cc2ccccc2o1` the Potency was inconclusive [activator, full curve]. In the case of `COC(=O)Cc1ccc(NC(=O)c2ccc(Br)o2)cc1`, the Potency is reported as inconclusive [activator, partial curve]. For `COC(=O)c1ccc(/C=C2\Oc3ccccc3NC2=O)cc1`, the Potency was inconclusive [activator, partial curve]. In the case of `Nc1nc(-c2ccc(Cl)cc2)nnc1-c1ccc(Br)cc1`, the Potency is reported as active: 1.78 µM. With `Oc1ccc(Nc2ncnc3c2oc2ccccc23)cc1` the Potency was inconclusive [activator, single point]. For `O=C(CCSc1ccc(Cl)cc1)N1CCN(c2ncccn2)CC1`, the Potency was inconclusive [activator, partial curve]. In the case of `Cc1cc(=O)n2[nH]c(-c3cccc(Cl)c3)cc2n1`, the Potency is reported as inconclusive [activator, single point]. For `C/C=C(\C)C(=O)O[C@@H]([C@H](O)c1cc2ccc(=O)oc2cc1OC)C(C)(C)O`, the Potency was “inactive”. In the case of `CN(C(=O)Nc1ccc(Cl)cc1Cl)C1CCCC1`, the Potency is reported as inconclusive [activator, single point]. With `CC(=O)c1ccc(NC(=O)c2ccc(C)c(Br)c2)cc1` the Potency was active: 2.51 µM. With `COc1ccc(OCCOc2ccc(C)nc2[N+](=O)[O-])cc1` the Potency was inconclusive [activator, partial curve]. With `CCOc1ccc(N(CC(=O)NCCc2ccccc2)C(=O)c2csnn2)cc1` the Potency was inconclusive [activator, single point]. With `COc1ccc(C(=O)NC2=NCCS2)c(OC)c1` the Potency was active: 0.891 µM. With `CSc1ccccc1-c1nnc(-c2ccc(Cl)c(Cl)c2)o1` the Potency was inconclusive [activator, single point]. With `Brc1ccc(N=Nc2ccc3ccccc3n2)cc1` the Potency was inconclusive [activator, partial curve]. With `O=C(CCl)Nc1c(C(=O)Nc2ccc3c(c2)OCCO3)oc2ccccc12` the Potency was active: 3.98 µM. In the case of `CCN(CC)S(=O)(=O)c1ccc(NCc2ccccn2)nc1`, the Potency is reported as inconclusive [activator, single point]. With `COc1ccc(CNc2ccc([N+](=O)[O-])cn2)cc1` the Potency was active: 3.16 µM. For `Clc1ccc(-c2cn3cccnc3n2)cc1Cl`, the Potency was inconclusive [activator, partial curve]. For `COc1ccc(C(=O)CSc2nnn(-c3cccc(NC(C)=O)c3)n2)cc1`, the Potency was inconclusive [activator, single point]. With `Cc1ccc(CC(=O)NCC2CCCCC2)cc1` the Potency was inconclusive [activator, single point]. In the case of `COC(=O)Cc1ccc2oc(-c3cccnc3)nc2c1`, the Potency is reported as inconclusive [activator, single point]. In the case of `COc1ccc(C2OC(=O)CC2C(=O)NCc2ccc(Cl)cc2)cc1OC` (stereo unspecified), the Potency is reported as inconclusive [activator, partial curve]. For `NS(=O)(=O)c1ccc(CCNC(=O)c2cc3ccccc3s2)cc1`, the Potency was “inactive”. In the case of `NS(=O)(=O)c1ccc(N/C=C/C(=O)c2ccc(Br)cc2)cc1`, the Potency is reported as inconclusive [activator, single point]. In the case of `CCSc1nnc(Nc2ccccc2)s1`, the Potency is reported as inconclusive [activator, partial curve]. For `CSCCC(NC(=O)c1ccccc1)C(=O)N1CC=C(c2ccccc2)CC1` (stereo unspecified), the Potency was inconclusive [activator, single point]. With `Brc1cc2c(cc1/C=N/Nc1nc3ccccc3s1)OCO2` the Potency was inconclusive [activator, single point]. With `O=C(CCN1C(=O)/C(=C/c2ccccc2)SC1=S)NCCCN1CCOCC1` the Potency was “inactive”. With `Cn1cccc1C(=O)NCC1COc2ccccc2O1` (stereo unspecified) the Potency was inconclusive [activator, partial curve]. In the case of `O=C(c1ccccc1)N1CCN(c2ncnc3sc4c(c23)CCC4)CC1`, the Potency is reported as “inactive”. For `Nc1ccc(-c2nc3ccc(-c4nc5ccc(N)cc5[nH]4)cc3[nH]2)cc1`, the Potency was “inactive”. In the case of `COc1cccc(/C(C)=N/NC(=O)c2ccc(N(C)C)cc2)c1`, the Potency is reported as inconclusive [activator, partial curve]. With `OCCN1CCN(c2nc(-c3ccccc3)nc3c2oc2ccccc23)CC1` the Potency was “inactive”. For `O=C(Nc1ccc(Br)cn1)c1ccc2ccccc2c1`, the Potency was active: 1.58 µM. For `Cc1cccc(NC(=O)c2sc(C)nc2C)c1`, the Potency was inconclusive [activator, single point]. In the case of `CCOc1ccc2nc(-c3ccccc3)[nH]c2c1`, the Potency is reported as active: 0.794 µM. With `CCOc1ccccc1NC(=O)c1ccc2ccccc2c1` the Potency was inconclusive [activator, partial curve]. With `O=C(Nc1ccc2c(c1)COC2=O)c1ccc(Cl)c(Cl)c1` the Potency was inconclusive [activator, single point]. For `COc1ccc(NC(=O)c2ccccc2C)cc1`, the Potency was active: 1.41 µM. For `O=C(O)c1cnn(-c2ccccc2)c1C(F)(F)F`, the Potency was “inactive”. For `CC(NC(=O)C(C)N1CCN(Cc2ccccc2)CC1)c1ccc(F)cc1` (stereo unspecified), the Potency was “inactive”. In the case of `COc1ccc2oc(C(=O)NC(C)(C)C)c(C)c2c1`, the Potency is reported as inconclusive [activator, single point]. With `Cc1ccc(NC(=O)Nc2cccc([N+](=O)[O-])c2)nc1` the Potency was inconclusive [activator, single point]. In the case of `Oc1cccc2ccc(/C=C/c3ccccc3Cl)nc12`, the Potency is reported as inconclusive [activator, single point]. In the case of `CCCSc1nsc(NC(=O)Nc2ccc(F)cc2F)n1`, the Potency is reported as inconclusive [activator, single point]. In the case of `COc1cccc2cc(C(=O)NCc3ccccn3)c(=O)oc12`, the Potency is reported as inconclusive [activator, single point]. For `COc1ccccc1/C=C/C(=O)c1ccc(Cl)cc1`, the Potency was inconclusive [activator, partial curve]. For `O=C(O)c1cccc(NC(=O)c2cccc(S(=O)(=O)N3CCCCC3)c2)c1`, the Potency was inconclusive [activator, partial curve]. In the case of `COc1cccc(/C=C/C(=O)Nc2ccc3c(c2)OCCO3)c1OC`, the Potency is reported as active: 0.398 µM. In the case of `O=C(Nc1ccc(N2CCCC2)cc1)c1ccc(Br)o1`, the Potency is reported as active: 0.501 µM. For `Cc1ccccc1N=CC1=C(O)c2ccccc2C1=O`, the Potency was inconclusive [activator, partial curve, poor fit]. In the case of `O=c1c(-c2ccc(Cl)cc2)c[nH]n1-c1ccccc1`, the Potency is reported as inconclusive [activator, single point]. For `Nc1ccc2nc(N3CCOCC3)sc2c1`, the Potency was inconclusive [activator, partial curve]. In the case of `Cc1cc(C)c(C)c(S(=O)(=O)Nc2cccc(-n3cnnn3)c2)c1C`, the Potency is reported as “inactive”. In the case of `Cc1ccc(N(CC(=O)NC2CCCC2)C(=O)CCC(=O)Nc2ccccn2)cc1`, the Potency is reported as “inactive”. With `CCCC(=O)N1CCc2cc(-c3nc(N)sc3C)ccc21` the Potency was inconclusive [activator, single point]. With `COc1cc(SC)ccc1C(=O)Nc1ccc(C)cc1` the Potency was inconclusive [activator, partial curve]. For `Cc1ccc(OCCN2C(=O)C(=O)c3cccc(C)c32)cc1`, the Potency was “inactive”. With `COCCOC(=O)N/C=C\c1nc2ccccc2c(=O)[nH]1` the Potency was “inactive”. In the case of `CC1CCN(C(=O)c2cc3ccccc3o2)CC1`, the Potency is reported as inconclusive [activator, partial curve]. For `Cc1cccc(C(=O)OCc2cc(=O)oc3c(C)c(C)ccc23)c1O`, the Potency was inconclusive [activator, single point]. For `O=C(CCc1nnc(C2(c3ccc(Cl)cc3)CCC2)o1)N1CCCC1`, the Potency was inconclusive [activator, single point]. With `CCN(CC)c1ccc(/C=C/c2nc3ccccc3s2)cc1` the Potency was inconclusive [activator, full curve, poor fit]. For `c1csc(-c2nc(CN3CCSCC3)cs2)c1`, the Potency was inconclusive [activator, partial curve]. For `Cc1nc(-c2ccccc2)sc1-c1nnc(C2CC2)o1`, the Potency was inconclusive [activator, partial curve]. For `COc1ccc(NC(=O)c2coc(C)c2)cc1`, the Potency was inconclusive [activator, partial curve]. For `O=C(CSc1cccc[n+]1[O-])c1ccc(-c2ccccc2)cc1`, the Potency was inconclusive [activator, single point].

— PubChem BioAssay AID485313 (National Center for Advancing Translational Sciences (NCATS), 2010)
Potency is the fitted concentration of half-maximal effect; tags give direction and shape of the fitted curve.
